From the supplement of paper PMC10338343
± gives the standard deviation. The full ranking holds about 3,000 sequences; the median of “pre-steady-state target cleavage rate” is about 0.0079, and the highest 2% start at about 0.2. The entries are a selection whose mix differs from that of the whole data set.

Tested on: MILI (PIWIL2) piRISC loaded with piRNA #2 (26 nt)
Assay: pre-steady-state target cleavage rate (min^-1); MIWI and MILI are mouse PIWI proteins and EfPiwi is from a freshwater sponge; tags in brackets are library labels; higher = faster piRNA-guided slicing of the target
Details: guide: piRNA #2 5'p-UUAGGUAACCCAGUAGAUCCAGAGGA; auxiliary factor: 500 nM mouse GTSF1
Method: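 Cleave-'n-Seq: a library of target RNAs (target site embedded in constant flanks, ACAGCATTCCGCGTTAGTGATATCCG... 5' flank; DNA-blocked outside the site) at 0.1 nM was incubated with 1 nM active mouse MILI or MIWI piRISC (synthetic 5'-monophosphorylated piRNA guide) with or without 500 nM mouse GTSF1 at 33 °C for 1 min to 16 h. Uncleaved targets were sequenced and normalised to non-target controls, and the pooled three trials were fitted to a burst-and-steady-state model to give the pre-steady-state cleavage rate (min^-1; k3 is constrained to at most 1e-4). Sequence is the target site only; target names encode pairing extent (gX:gY) and contiguous / 1-mismatch / 2-mismatch / bulge geometry. Fits with R² ≤ 0 are excluded.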

Sequence	pre-steady-state target cleavage rate
CUUAUCCUCUGGAUGUACUGGGUUUCCUAA	0.105 ± 0.04
CUUAAGCUGUGGAUCUACAGGGUUACCUAA	0.0785 ± 0.012
CUUAAGGAGUGGAUCUACUGGGGUUACCUAA	0.00877 ± 0.003
CUUAAGCUCUGAUCUACUGGGUUACCUAA	0.0427 ± 0.013
CUUAACCUCAGGAUCUACUGGGUUACCUUA	0.0721 ± 0.016
CUUAAGCUCUGCUUCUACUGGGUUACCUAA	0.0415 ± 0.0097
CUUAACCUCGGAUCUACUGGGUUACCUAA	0.103 ± 0.031
CUUAUCCUCUAGAUCUACUGGGUUACCUAA	0.224 ± 0.034
CUUAAGGUCUGGAUCUAGAGGGUUACCUAA	0.0495 ± 0.011
CUUAAGGAGACGAUCUACUGGGUUUACCUAA	0.00481 ± 0.0031
CUUAAGGUGUGGAUCUUCUGGGUUACCUAA	0.0242 ± 0.012
CUUAUCCUCUGGAUCUACUGGGUAACCUUA	0.181 ± 0.055
CUUAUCCUCUGAUCUACUGGGUUACCUAA	0.123 ± 0.029
CUUAUCCUCUGGAUCUACUGCGUUACCUUA	0.0128 ± 0.0052
CUUAUCCUCUGGAUCUACUGGGUUACCAUAA	0.15 ± 0.026
CUUAAGGACUGGAUCUACACGGUUACCUAA	0.00745 ± 0.0049
CUUAUCCUCUCCAUCUACUGGGUUACCUAA	0.132 ± 0.021
CUUAAGGAGAGGAUCUACUGGGUUAUCCUAA	0.00736 ± 0.004
CUUAUCCUCUGGAUCUGCUGGGUUACCUAA	0.0654 ± 0.015
CUUAAGGACUGGAUCUACUGGGGUUACCUAA	0.00846 ± 0.0074
CUUAAGGUCUCGAUCUACUCGGUUACCUAA	0.00571 ± 0.0029
CUUAAGCUCUGGAUCUACUGGUUUACCUAA	0.00746 ± 0.0029
CUUAAGGAGUGGUUCUACUGGGUUACCUAA	0.0254 ± 0.0091
CUUAAGCUCUGGAUCUACUGGGUUAGCUUA	0.0559 ± 0.016

Sequence	pre-steady-state target cleavage rate
CUUAUGCUCUGGAUCUACUGGGUUACCAAA	0.1 ± 0.02
CUUAAGCUCUGGAUCUACUGGGAUACCUUA	0.0439 ± 0.014
CUUAACCUCUGGAUCUACUGCGUUACCAAA	0.0107 ± 0.0051
CUUAAGGACUGGAUCUACUGGGUUACCUA	0.0445 ± 0.017
CUUAAGCUCUGGAUCUACUGGGUUUGGUAA	0.00974 ± 0.0055
CUUAUCCUCUCGAUCUACUGGGUUACCUUA	0.174 ± 0.029
CUUAAGGAGUGGAUAUACUGGGUUACCUAA	0.0213 ± 0.01
CUUAAGGAGACCUACUACUGGGUUACCUAG [g2:g16:cont:t1G]	< 0.0001
CUUAAGGAGUGGAUCUACUGGGUGACCUAA	0.00657 ± 0.0048
CUUAAGCUCUGGAUCUACAGCGUUACCUAA	0.0101 ± 0.0043
CUUAACCACUGGAUCUACUGGGUUAGCUAA	0.00628 ± 0.0054
CUUAAGGAGACGAUCUACUGGGUUACCUAAA	0.00784 ± 0.0049
CUUAAGGUCUCGGAUCUACUGGGUUACCUAA	0.0556 ± 0.012
CUUAACCUCUGGAUCUACUAGGUUACCUAA	0.0639 ± 0.017
CUUAAGGUCGGGAUCUACUGGGUUACCUAA	0.04 ± 0.022
CUUAAGGAGACCUACAACUGGGUUACGUAA	< 0.0001
CUUAAGGUCUGGACCUACUGGGUUACCUAA	0.031 ± 0.0078
CUUAAGGAGACGAUCUACUGGGUUACCUA	0.00514 ± 0.0036
CUUAACCUCUGGUAGUACUGGGUUACCUAA	0.078 ± 0.025
CUUAAGGACAUGGAUCUACUGGGUUACCUAA	0.0309 ± 0.012
CUUAAGGUCUGGAUCUACUGGGUUACCUAC [g2:g23:cont:t1C]	0.0853 ± 0.013
CUUAAGGACAGCAUCUACUGGGUUACCUAA	0.0348 ± 0.014
CUUAUCGUCUGGAUCUAGUGGGUUACCUAA	0.0211 ± 0.0056
CUUAACCUCUCGAUCUACUCGGUUACCUAA	0.00465 ± 0.0023

Sequence	pre-steady-state target cleavage rate
CUUAAGGUCUCGAUCUAGUGGGUUACCUAA	0.0272 ± 0.0088
CUUAACCUCUGGAUCUAGUGGGUAACCUAA	0.0212 ± 0.0064
CUUAACCUGUGGAUCUACUGGGAUACCUAA	0.0128 ± 0.0049
CUUAAGGACUGGAUCUACUGGGUUACGUAA	0.00898 ± 0.0079
CUUAAGGUCUGGUUCAACUGGGUUACCUAA	0.038 ± 0.012
CUUAAGCUCUGGUCUACUGGGUUACCUAA	0.154 ± 0.06
CUUAACCUCAGGAUCUAGUGGGUUACCUAA	0.0644 ± 0.014
CUUAAGCUCAGCAUCUACUGGGUUACCUAA	0.119 ± 0.035
CUUAAGGACUUGGAUCUACUGGGUUACCUAA	0.0239 ± 0.0091
CUUAAGCUGCUGGAUCUACUGGGUUACCUAA	0.0417 ± 0.015
CUUAACCUAUGGAUCUACUGGGUUACCUAA	0.108 ± 0.016
CUUAACCUCUCGAUCAACUGGGUUACCUAA	0.0682 ± 0.013
CUUAAGCUCUGGAUCUACUGGGUAUGCUAA	0.055 ± 0.016
CUUAUCCUCUCGAUCUACUGGCUUACCUAA	0.00464 ± 0.0021
CUUAUCCUCUGGAUCUUCUGGGAUACCUAA	0.0466 ± 0.014
CUUAUCCUCAGCAUCUACUGGGUUACCUAA	0.271 ± 0.06
CUUAAGCUCUGGAUCUUGUGGGUUACCUAA	0.00903 ± 0.0046
CUUAAGGACUGGAUGUACUGGGUUACCUUA	0.0218 ± 0.018
CUUAAGCUCUGGAUCAACAGGGUUACCUAA	0.0282 ± 0.0061
CUUAAGGACUAGGAUCUACUGGGUUACCUAA	0.0111 ± 0.0071
CUUAAGGUCUUGAUCUACUGGGUUACCUAA	0.0869 ± 0.017
CUUAACCUGUGGUUCUACUGGGUUACCUAA	0.0336 ± 0.0095
CUUAUCCUCUCGAUCUUCUGGGUUACCUAA	0.166 ± 0.026
CUUAUGCUCUGGAUCUACUGCGUUACCUAA	0.0127 ± 0.0036
